# Test results from article PMC4336329 (PLoS ONE, 2015).
# Out of some 310,000 compounds screened, about 2,200 (0.71%) showed an effect of 50% or more. Effects have a minus sign here. The list shows a part of the results.
# Target: human ether-à-go-go-related gene (hERG) potassium channel (human, UniProt Q12809)
# Assay: primary screen, population patch clamp on CHO cells stably expressing hERG
# human ether-à-go-go-related gene (hERG) potassium channel, sequence (Q12809 whole entry, looked up): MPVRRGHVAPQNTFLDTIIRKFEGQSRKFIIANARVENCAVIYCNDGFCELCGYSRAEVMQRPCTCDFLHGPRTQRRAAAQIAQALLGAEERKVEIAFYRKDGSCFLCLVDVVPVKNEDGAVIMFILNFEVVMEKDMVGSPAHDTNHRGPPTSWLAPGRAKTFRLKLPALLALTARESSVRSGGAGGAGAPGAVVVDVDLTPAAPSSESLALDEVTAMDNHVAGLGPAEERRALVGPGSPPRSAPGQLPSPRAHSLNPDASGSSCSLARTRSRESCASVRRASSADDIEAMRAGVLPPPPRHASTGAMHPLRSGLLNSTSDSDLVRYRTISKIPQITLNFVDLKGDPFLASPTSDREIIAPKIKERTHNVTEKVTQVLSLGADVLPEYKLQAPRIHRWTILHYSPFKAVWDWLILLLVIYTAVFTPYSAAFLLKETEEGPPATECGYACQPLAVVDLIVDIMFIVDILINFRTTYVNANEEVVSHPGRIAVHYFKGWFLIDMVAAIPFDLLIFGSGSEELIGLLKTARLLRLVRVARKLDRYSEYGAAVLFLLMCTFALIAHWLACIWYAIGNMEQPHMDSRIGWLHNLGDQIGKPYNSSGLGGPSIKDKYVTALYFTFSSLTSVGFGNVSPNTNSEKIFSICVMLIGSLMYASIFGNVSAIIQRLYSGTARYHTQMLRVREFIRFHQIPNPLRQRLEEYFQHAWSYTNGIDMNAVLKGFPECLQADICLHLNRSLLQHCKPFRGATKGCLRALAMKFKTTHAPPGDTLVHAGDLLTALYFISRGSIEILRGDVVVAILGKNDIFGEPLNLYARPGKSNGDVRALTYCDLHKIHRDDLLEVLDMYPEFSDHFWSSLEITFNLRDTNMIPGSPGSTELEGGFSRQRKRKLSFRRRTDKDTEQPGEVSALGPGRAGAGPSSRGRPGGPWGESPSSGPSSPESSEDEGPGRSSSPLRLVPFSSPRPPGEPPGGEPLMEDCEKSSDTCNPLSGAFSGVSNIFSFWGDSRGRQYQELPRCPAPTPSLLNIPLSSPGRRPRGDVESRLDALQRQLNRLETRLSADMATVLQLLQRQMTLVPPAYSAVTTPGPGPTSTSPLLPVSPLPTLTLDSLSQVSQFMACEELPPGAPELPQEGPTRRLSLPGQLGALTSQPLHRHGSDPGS
row,Structure (SMILES),"hERG current change (%, negative = inhibition) at 1uM [%]"
1,Cc1ccc2[nH]c(=O)c(CN(CCO)Cc3nnnn3CCc3ccccc3)cc2c1,3.95
2,Cc1ccc2c(c1)C(c1ccc(O)cc1)(c1ccc(O)cc1)C(=O)N2C,16
3,COc1ccc(C2/C(=C(\O)c3ccc4c(c3)OCCO4)C(=O)C(=O)N2CCCN(C)C)cc1 (stereo not drawn),14.9
4,O=C(CCNC(=O)c1ccc(Br)cc1)NC1CCCc2ccccc21 (stereo not drawn),5.53
5,COC(=O)c1c(-c2ccccc2)nn(-c2ccccc2)c1C(=O)OC,17.4
6,CCCC(C)C1C(C#N)=C(N)Oc2c1c(=O)oc1ccccc21 (stereo not drawn),-1.25
7,O=C1C(=O)c2c(C(=O)c3ccccc3)coc2-c2ccccc21,2.45
8,COCCN1CCn2c(nc3cc(NC(=O)c4ccc(OC)cc4)ccc32)C1,-0.405
9,NS(=O)(=O)c1cccc(NC(=O)C2CC(=O)N(Cc3ccco3)C2)c1 (stereo not drawn),9.06
10,Cn1nc(C(F)(F)F)c(/C=N/OC(=O)c2ccc(Cl)cc2)c1Cl,14.3
11,Cc1cc(-c2nc3cccnc3s2)ccc1NS(=O)(=O)c1cccs1,15.4
12,CCCCNC(=O)CCn1c(=O)c2ccccc2n(CC(=O)NCCc2ccc(OC)c(OC)c2)c1=O,6.51
13,O=C(CSc1nc2ccccc2s1)c1ccc(O)cc1O,9.22
14,O=C(CN1CCN(S(=O)(=O)c2ccc(Cl)cc2)CC1)NCc1cccs1,-10.3
15,CCCc1[nH]n(-c2ccc([N+](=O)[O-])cc2)c(=O)c1C=NCCN1CCNCC1,-9.24
16,Cc1ccc(S(=O)(=O)N2CC(C(=O)O)Oc3ccccc32)cc1 (stereo not drawn),3.24
17,COc1ccccc1NC(=O)c1ccc(S(=O)(=O)N2CCCC2)cc1,-0.878
18,CCCCOc1ccc(NC(=O)Cn2c(=O)ccc3c(C)cc(C)nc32)cc1,11.1
19,Cc1ccc(C(=O)N/C(=C\c2ccccc2)C(=O)OCc2ccccc2)cc1,0.151
20,COc1ccc(NC(=S)NCc2cccn2C)cc1,1.19
21,Cc1cc(NC(=O)c2ccc(S(=O)(=O)N3CCOCC3)cc2)no1,9.09
22,CCNc1nc(NCC)nc(SCCOC(=O)COc2ccc(Cl)cc2Cl)n1,13.1
23,Cc1ccc(S(=O)(=O)N2c3ccccc3-c3c(ssc3=S)C2(C)C)cc1,-1.68
24,CCCCc1ncc(CN2CCC(n3nccc3NC(=O)C(OC)c3ccccc3)CC2)[nH]1 (stereo not drawn),6.27
25,CCCCP(=O)(O)CCC(=O)O,5.79
26,Cc1cc(CC(=O)O)c2oc(-c3ccoc3)cc(=O)c2c1,15.1
27,O=C(/C=C/Nc1ccc(Oc2ccccc2)cc1)c1ccco1,12

row,Structure (SMILES),"hERG current change (%, negative = inhibition) at 1uM [%]"
1,CCCC(=O)Nc1ccc(C(=O)N/N=C2\CC(=O)CC(C)(C)C2)cc1,-17
2,CC(=O)Nc1ccc2nc(NC(=O)COc3ccccc3Cl)sc2c1,8.74
3,Cn1ccnc1SCC(=O)NC1CC1,3.59
4,COc1cccc(-c2cc(C(=O)NN3CCOCC3)c3ccccc3n2)c1,-8.96
5,CC(=O)Nc1ccc(C(=O)N/C(=C/c2ccccc2)C(=O)N2CCCCC2)cc1,11.2
6,Cc1ccc(N(CC(=O)NCc2ccccc2)S(=O)(=O)c2c(C)noc2C)cc1,12.5
7,CCc1ccc(-c2cc(-c3n[nH]c(=S)n3CC)c3ccccc3n2)cc1,3.58
8,Cc1ccc(CN=Cc2[nH]c3ccc(Br)c(Cl)c3c2O)cc1,4.8
9,COc1ccc2c(c1)CCCC21NC(=O)N(CC(=O)NC(=O)NCc2ccccc2)C1=O (stereo not drawn),6.62
10,CCOc1ccc([C@@H]2CC=C(C(=O)O)[C@H](c3ccc(F)cc3)N2S(=O)(=O)c2ccc(C)cc2)cc1,17.1
11,COC(=O)c1ccc2c(=O)n(CCN3CCOCC3)c(=S)[nH]c2c1,-6.87
12,NS(=O)(=O)c1ccc(NC(=S)NCc2ccco2)cc1,9.92
13,CCOc1c(Br)cc(CNc2ccc(N3CCOCC3)cc2)cc1OC,22.4
14,CCC1(CC)Cc2ccccc2-c2nc(-c3ccccc3)oc(=O)c21,1.97
15,Cc1cccc(C)c1OCc1nc2ccccc2c(=O)n1/N=C/c1ccc(OCC(=O)O)cc1,14.7
16,CN(CC(=O)Nc1ccc(Cl)c(C(F)(F)F)c1)C(=O)c1cccc(N2C(=O)CCC2=O)c1,3.45
17,COc1ccc(NS(=O)(=O)c2cccc(C(=O)NNC(=O)c3cc(S(N)(=O)=O)ccc3OC)c2)cc1,-8.24
18,O=S(=O)(NC(=NCCc1ccc(Cl)cc1)c1ccccc1Cl)c1cccs1,-4.53
19,Cc1ccc(C(=O)CN2C(=O)NC3(CCOc4ccccc43)C2=O)s1 (stereo not drawn),2.46
20,Cc1ccc(NC(=O)C2CCN(S(=O)(=O)c3ccccc3)CC2)cc1,9.45
21,COc1ccc(C(=O)N2CC(=O)Nc3ccccc32)cc1S(=O)(=O)N1CCOCC1,11.5
22,COC(=O)C1=C(C)N(C)C(=O)NC1c1ccccc1 (stereo not drawn),-1.56
23,CCC(C)(C)C1CCc2c(sc(NC(=O)c3ccoc3C)c2C(N)=O)C1 (stereo not drawn),15.3
24,COc1ccc(-n2c(=O)c(CCC(=O)N(C)Cc3ccccc3C)nc3ccccc32)cc1,1.09
25,C=C1CCN([C@H](C(=O)NCc2cc(OC)c(OC)c(OC)c2)C(C)C)S(=O)(=O)c2ccccc21,5.44
26,COc1ccc(NC(=O)CN2CCN(CC(=O)Nc3ccccc3F)CC2)c(OC)c1,-19.6
27,COc1cc(/C=N/NC2=NC(C)(C)Cc3ccccc32)cc(OC)c1OC,9.85
